Reference: ChEMBL document CHEMBL1201862, “PubChem BioAssay data set” (2004)
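Tested at 5 concentrations; 48 h exposure; 96-well plates; endpoints linearly interpolated, else capped at highest concentration. Here, GI50 denotes the concentration required for 50% inhibition of growth.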 The source made the active and inactive calls. Rule as the data show it: active = GI50 up to about 1.1 µM and inactive = higher.

tested on: NCI-H322M; assay: NCI tumour cell line growth inhibition, 48 h

Q: How did the GI50 turn out when `O=C(C/C(=N/O)C(F)(F)F)c1cccs1` was run?
A: The GI50 was inactive: > 100 µM.

Q: With `Cc1cccc(NC(=O)/C=C/c2ccc([N+](=O)[O-])cc2)c1` as the molecule, how does the GI50 read?
A: Its GI50 is inactive: > 39.5 µM.

Q: With `c1ccc(N/N=C2\NN=C(c3ccccc3)CS2)cc1` as the molecule, how does the GI50 read?
A: Its GI50 is inactive: 24 µM.

Q: `C/C(CC(=O)Nc1ccc([N+](=O)[O-])cc1)=N\Nc1ccc([N+](=O)[O-])cc1[N+](=O)[O-]` was tested. Which GI50 did it give?
A: The GI50 was inactive: > 100 µM.

Q: With `O=C(c1cc2ccccc2[nH]1)C(O)(c1cc2ccccc2[nH]1)c1cc2ccccc2[nH]1` as the molecule, how does the GI50 read?
A: Its GI50 is inactive: > 246 µM.

Q: With `CCNCCNc1c2ccccc2nc2ccccc12` as the molecule, how does the GI50 read?
A: Its GI50 is inactive: 1.46 µM.

Q: For `Clc1ccc(/N=c2\oc3ccccc3cc2-c2nc3ccccc3[nH]2)c(Cl)c1`, which GI50 is on record?
A: Its GI50 is active: 0.0662 µM.

Q: Which GI50 does the source give for `COc1ccc(C(C#N)NCCCCCCNC(C#N)c2ccc(OC)cc2)cc1` (stereo not given) here?
A: Its GI50 is inactive: > 100 µM.

Q: How did the GI50 turn out when `N#CC(C#N)/N=N/c1ccc(-c2nc3ccccc3[nH]2)cc1` was run?
A: The GI50 was inactive: > 100 µM.

Q: Which GI50 does the source give for `CCc1nc(N)nc(N)c1-c1ccc([N+](=O)[O-])c(Cl)c1` here?
A: The GI50 was inactive: 7.62 µM.

Q: With `COC(=O)c1c(OC(C)=O)ccc2c1c1c(OC(C)=O)c3ccccc3c(OC(C)=O)c1n2Cc1cc(OC)cc(OC)c1` as the molecule, how does the GI50 read?
A: The GI50 was inactive: 22 µM.

Q: `C/C(CC(=O)Nc1ccc(C)cc1C)=N/N=C(N)N` was tested. Which GI50 did it give?
A: The GI50 was inactive: > 100 µM.

Q: With `O=[N+]([O-])c1ccc(-n2nc3ccc4c(no[n+]4[O-])c3[n+]2[O-])c([N+](=O)[O-])c1` as the molecule, how does the GI50 read?
A: The GI50 was inactive: 3.05 µM.

Q: `O=P(Oc1ccc(Cl)cc1)(Oc1ccc(Cl)cc1)N1CC1` was tested. Which GI50 did it give?
A: The GI50 was inactive: > 10 µM.

Q: How did the GI50 turn out when `O=C(C[n+]1ccccc1)N/N=C(\C(=O)NC1=C(Cl)C(=O)c2ccccc2C1=O)c1c(O)c2ccc(O)cc2oc1=O` was run?
A: Its GI50 is inactive: 13.9 µM.

Q: `C#C[C@]1(O)CC[C@H]2[C@@H]3CCC4=C/C(=N/NC(=O)c5cccc6c(=O)c7ccccc7[nH]c56)CCC4[C@H]3CC[C@@]21C` (stereo not given in full) was tested. Which GI50 did it give?
A: The GI50 was inactive: > 100 µM.

Q: Which GI50 does the source give for `CCOC(=O)/C(=C/c1ccccc1)N(CC)CC` here?
A: Its GI50 is inactive: > 100 µM.

Q: How did the GI50 turn out when `O=c1cc(O)c2c(O)cc(O)cc2o1` was run?
A: Its GI50 is inactive: > 100 µM.

Q: `CC1(CO)C(O)CCC2(C)C1CCC1CC3CC12CCC3(O)CO` (stereo not given) was tested. Which GI50 did it give?
A: Its GI50 is inactive: > 100 µM.

Q: How did the GI50 turn out when `COC(=O)C(CCC1(C)OCCO1)C(C)=O` (stereo not given) was run?
A: Its GI50 is inactive: > 100 µM.

Q: Which GI50 does the source give for `CC(C)(C)c1c(C(C)(C)C)c(=O)c1=O` here?
A: Its GI50 is inactive: > 100 µM.

Q: Which GI50 does the source give for `COc1ccc(NN=C2C(=O)CCC2=O)cc1` here?
A: Its GI50 is inactive: > 100 µM.

Q: How did the GI50 turn out when `COC(Cc1ccccc1)NC(C)=O` (stereo not given) was run?
A: Its GI50 is inactive: > 100 µM.

Q: How did the GI50 turn out when `SC1=NC2=C(CSC/C2=C\c2ccccc2)C(c2ccccc2)N1` (stereo not given) was run?
A: Its GI50 is inactive: > 100 µM.

Q: How did the GI50 turn out when `CC(=O)N[C@@H](Cc1ccc(O)cn1)C(=O)NCc1cccc(Cl)c1` was run?
A: Its GI50 is inactive: > 100 µM.

Q: Which GI50 does the source give for `O=c1[nH]c(Nc2ccc(Br)c(C(F)(F)F)c2)nc2[nH]cnc12` here?
A: The GI50 was inactive: > 100 µM.

Q: `CCN(CC)CCc1c2c(nc3ccccc13)C(=O)c1cccnc1C2=O` was tested. Which GI50 did it give?
A: Its GI50 is inactive: 2.1 µM.

Q: Which GI50 does the source give for `CC(C)C(=O)/C=C/c1ccc(Br)cc1` here?
A: The GI50 was inactive: 20.8 µM.

Q: `COc1ccc(NC(=O)CSc2nnc(Cc3ccccc3)o2)cc1` was tested. Which GI50 did it give?
A: Its GI50 is inactive: > 100 µM.

Q: Which GI50 does the source give for `CCOC(=O)C(NC(=O)NC(C(=O)OCC)C(=O)OCC)C(=O)OCC` here?
A: The GI50 was inactive: > 100 µM.

Q: For `O=C(Nc1nc2ccc([N+](=O)[O-])cc2s1)C(=O)C(C(=O)c1ccccc1F)C1OC(=O)c2ccccc21` (stereo not given), which GI50 is on record?
A: The GI50 was inactive: 37.8 µM.

Q: For `O=C(N/N=C/c1ccc2c(c1)OCO2)Nc1ccccc1Cl`, which GI50 is on record?
A: The GI50 was inactive: 3.54 µM.

Q: `O=C(O)c1cccc(CC(Br)C(=O)O)c1` (stereo not given) was tested. Which GI50 did it give?
A: The GI50 was inactive: > 100 µM.

Q: Which GI50 does the source give for `CNc1ccc2ncccc2c1[N+](=O)[O-]` here?
A: Its GI50 is inactive: > 100 µM.

Q: `c1ccc(C2C3=C(c4ccccc4CC3)N3c4cc5c(cc4=NC34CCCCC24)Nc2ccccc2N=5)cc1` (stereo not given) was tested. Which GI50 did it give?
A: The GI50 was inactive: > 10 µM.

Q: With `CC1[C@@]2(CCC(C)(C)O2)O[C@@H]2C=C3C4CCC5Cc6nc7c(nc6C[C@@]5(C)C4C[C@H](O)[C@@]3(C)[C@]12O)CC1CCC2C3=C[C@H]4O[C@@]5(O[C@@](C)(CO)C[C@@H]5O)C(C)[C@@]4(O)[C@]3(C)[C@@H](O)CC2[C@]1(C)C7` (stereo not given in full) as the molecule, how does the GI50 read?
A: The GI50 was active: 0.881 µM.

Q: `CC(NC1CCCC[C@@H]1O)c1ccccc1` (stereo not given in full) was tested. Which GI50 did it give?
A: Its GI50 is inactive: > 100 µM.

Q: Which GI50 does the source give for `Cn1cc2ccccc2c1-c1nc(F)nc(Oc2ccc3c(c2)CC[C@@H]2C3CC[C@]3(C)C(O)CCC23)n1` (stereo not given in full) here?
A: Its GI50 is inactive: 28.2 µM.

Q: With `O=C1OC(c2ccccc2)C2CC3CC4(CCC3CN12)OCCO4` (stereo not given) as the molecule, how does the GI50 read?
A: Its GI50 is inactive: > 100 µM.

Q: For `COc1cc(C2(O)c3ccccc3C3=NCCN32)cc(OC)c1OC` (stereo not given), which GI50 is on record?
A: The GI50 was inactive: > 100 µM.

Q: How did the GI50 turn out when `COC(=O)CNC(=O)CCC(C)[C@H]1CCC2C3C(C[C@H](OC(C)=O)[C@@]21C)[C@@]1(C)CCC2(C[C@H]1C[C@H]3OC(C)=O)OOC1(CCCCC1)OO2` (stereo not given in full) was run?
A: Its GI50 is inactive: 23.7 µM.

Q: How did the GI50 turn out when `O=CN/C=C/c1cccc(O)c1` was run?
A: Its GI50 is inactive: 67.9 µM.

Q: `CN(C(=O)c1ccc(OCCCC(=O)O)c(Cl)c1Cl)C1CCCC1` was tested. Which GI50 did it give?
A: The GI50 was inactive: > 100 µM.

Q: Which GI50 does the source give for `COc1ccc2[nH]c3c(O)c(-c4c(C)cc5c([nH]c6ccc(OC)cc65)c4O)c(C)cc3c2c1` here?
A: The GI50 was inactive: 4.38 µM.

Q: For `O=C1Cc2c([nH]c3ccc(Cl)cc23)-c2ccccc2N1`, which GI50 is on record?
A: Its GI50 is inactive: > 100 µM.
